Reference: the supplement of paper PMC8728848
This is one part of the list.

Columns and labels:
Experiment in all cases: glycan array binding signal (z-score within array); higher = stronger binding
Details in all cases: glycan notation: IUPAC condensed, linker removed
[1] = molecular target: GlcNAc(b1-3)Gal(b1-3)GalNAc
In short: (§1)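 The Consortium for Functional Glycomics database supplied 3228 glycan arrays, of which those lacking an available protein sequence were dropped. The binding signal, a within-array Z-score, was averaged across arrays of the same protein sequence and across linkers. Negative scores can be read as non-binding.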

GlcNAc(b1-3)Gal(b1-4)Glc = molecular target: GlcNAc(b1-3)Gal(b1-4)Glc
In short: as §1

[2] = molecular target: GlcNAc(b1-3)Gal(b1-4)GlcNAc
In short: as §1

[3] = molecular target: GlcNAc(b1-3)Gal(b1-4)GlcNAc(b1-2)Man(a1-3)[GlcNAc(b1-3)Gal(b1-4)GlcNAc(b1-2)Man(a1-6)]Man(b1-4)GlcNAc(b1-4)GlcNAc
In short: as §1

[4] = molecular target: GlcNAc(b1-3)Gal(b1-4)GlcNAc(b1-2)Man(a1-3)[GlcNAc(b1-3)Gal(b1-4)GlcNAc(b1-2)Man(a1-6)]Man(b1-4)GlcNAc(b1-4)[Fuc(a1-6)]GlcNAc
In short: as §1

[5] = molecular target: GlcNAc(b1-3)Gal(b1-4)GlcNAc(b1-2)[GlcNAc(b1-3)Gal(b1-4)GlcNAc(b1-6)]Man(a1-6)[GlcNAc(b1-3)Gal(b1-4)GlcNAc(b1-2)Man(a1-3)]Man(b1-4)GlcNAc(b1-4)GlcNAc
In short: as §1

[6] = molecular target: GlcNAc(b1-3)Gal(b1-4)GlcNAc(b1-3)Gal(b1-4)GlcNAc
In short: as §1

[7] = molecular target: GlcNAc(b1-3)Gal(b1-4)GlcNAc(b1-3)Gal(b1-4)GlcNAc(b1-2)Man(a1-3)[GlcNAc(b1-3)Gal(b1-4)GlcNAc(b1-3)Gal(b1-4)GlcNAc(b1-2)Man(a1-6)]Man(b1-4)GlcNAc(b1-4)GlcNAc
In short: as §1

[8] = molecular target: GlcNAc(b1-3)Gal(b1-4)GlcNAc(b1-3)Gal(b1-4)GlcNAc(b1-2)Man(a1-3)[GlcNAc(b1-3)Gal(b1-4)GlcNAc(b1-3)Gal(b1-4)GlcNAc(b1-2)Man(a1-6)]Man(b1-4)GlcNAc(b1-4)[Fuc(a1-6)]GlcNAc
In short: as §1

[9] = molecular target: GlcNAc(b1-3)Gal(b1-4)GlcNAc(b1-3)Gal(b1-4)GlcNAc(b1-2)[GlcNAc(b1-3)Gal(b1-4)GlcNAc(b1-3)Gal(b1-4)GlcNAc(b1-6)]Man(a1-6)[GlcNAc(b1-3)Gal(b1-4)GlcNAc(b1-3)Gal(b1-4)GlcNAc(b1-2)Man(a1-3)]Man(b1-4)GlcNAc(b1-4)[Fuc(a1-6)]GlcNAc
In short: as §1

[10] = molecular target: GlcNAc(b1-3)Gal(b1-4)GlcNAc(b1-3)Gal(b1-4)GlcNAc(b1-3)Gal(b1-4)GlcNAc(b1-2)Man(a1-3)[GlcNAc(b1-3)Gal(b1-4)GlcNAc(b1-3)Gal(b1-4)GlcNAc(b1-3)Gal(b1-4)GlcNAc(b1-2)Man(a1-6)]Man(b1-4)GlcNAc(b1-4)GlcNAc
In short: as §1

[11] = molecular target: GlcNAc(b1-3)Gal(b1-4)GlcNAc(b1-3)Gal(b1-4)GlcNAc(b1-3)Gal(b1-4)GlcNAc(b1-2)Man(a1-3)[GlcNAc(b1-3)Gal(b1-4)GlcNAc(b1-3)Gal(b1-4)GlcNAc(b1-3)Gal(b1-4)GlcNAc(b1-2)Man(a1-6)]Man(b1-4)GlcNAc(b1-4)[Fuc(a1-6)]GlcNAc
In short: as §1

[12] = molecular target: GlcNAc(b1-3)Gal(b1-4)GlcNAc(b1-3)Gal(b1-4)GlcNAc(b1-3)Gal(b1-4)GlcNAc(b1-2)[GlcNAc(b1-3)Gal(b1-4)GlcNAc(b1-3)Gal(b1-4)GlcNAc(b1-3)Gal(b1-4)GlcNAc(b1-6)]Man(a1-6)[GlcNAc(b1-3)Gal(b1-4)GlcNAc(b1-3)Gal(b1-4)GlcNAc(b1-3)Gal(b1-4)GlcNAc(b1-2)Man(a1-3)]Man(b1-4)GlcNAc(b1-4)[Fuc(a1-6)]GlcNAc
In short: as §1

[13] = molecular target: GlcNAc(b1-3)Gal(b1-4)GlcNAc(b1-3)Gal(b1-4)GlcNAc(b1-3)Gal(b1-4)GlcNAc(b1-3)Gal(b1-4)GlcNAc(b1-2)Man(a1-3)[GlcNAc(b1-3)Gal(b1-4)GlcNAc(b1-3)Gal(b1-4)GlcNAc(b1-3)Gal(b1-4)GlcNAc(b1-3)Gal(b1-4)GlcNAc(b1-2)Man(a1-6)]Man(b1-4)GlcNAc(b1-4)GlcNAc
In short: as §1

[14] = molecular target: GlcNAc(b1-3)Gal(b1-4)GlcNAc(b1-3)Gal(b1-4)GlcNAc(b1-3)Gal(b1-4)GlcNAc(b1-3)Gal(b1-4)GlcNAc(b1-2)Man(a1-3)[GlcNAc(b1-3)Gal(b1-4)GlcNAc(b1-3)Gal(b1-4)GlcNAc(b1-3)Gal(b1-4)GlcNAc(b1-3)Gal(b1-4)GlcNAc(b1-2)Man(a1-6)]Man(b1-4)GlcNAc(b1-4)[Fuc(a1-6)]GlcNAc
In short: as §1

[15] = molecular target: GlcNAc(b1-3)Gal(b1-4)GlcNAc(b1-3)Gal(b1-4)GlcNAc(b1-3)Gal(b1-4)GlcNAc(b1-3)Gal(b1-4)GlcNAc(b1-2)[GlcNAc(b1-3)Gal(b1-4)GlcNAc(b1-3)Gal(b1-4)GlcNAc(b1-3)Gal(b1-4)GlcNAc(b1-3)Gal(b1-4)GlcNAc(b1-6)]Man(a1-6)[GlcNAc(b1-3)Gal(b1-4)GlcNAc(b1-3)Gal(b1-4)GlcNAc(b1-3)Gal(b1-4)GlcNAc(b1-3)Gal(b1-4)GlcNAc(b1-2)Man(a1-3)]Man(b1-4)GlcNAc(b1-4)[Fuc(a1-6)]GlcNAc
In short: as §1

[16] = molecular target: GlcNAc(b1-3)Gal(b1-4)GlcNAc(b1-3)Gal(b1-4)GlcNAc(b1-3)GalNAc
In short: as §1

[17] = molecular target: GlcNAc(b1-3)Gal(b1-4)GlcNAc(b1-3)GalNAc
In short: as §1

[18] = molecular target: GlcNAc(b1-3)Gal(b1-4)GlcNAc(b1-3)[GlcNAc(b1-3)Gal(b1-4)GlcNAc(b1-3)]GalNAc
In short: as §1

[19] = molecular target: GlcNAc(b1-3)Gal(b1-4)GlcNAc(b1-6)[Gal(b1-3)]GalNAc
In short: as §1

[20] = molecular target: GlcNAc(b1-3)Gal(b1-4)GlcNAc(b1-6)[GlcNAc(b1-3)Gal(b1-3)]GalNAc
In short: as §1

[21] = molecular target: GlcNAc(b1-3)Gal(b1-4)GlcNAc(b1-6)[GlcNAc(b1-3)]Gal(b1-4)GlcNAc
In short: as §1

GlcNAc(b1-3)GalNAc = molecular target: GlcNAc(b1-3)GalNAc
In short: as §1

GlcNAc(b1-3)Man = molecular target: GlcNAc(b1-3)Man
In short: as §1

[22] = molecular target: GlcNAc(b1-3)[GlcNAc(b1-4)][GlcNAc(b1-6)]GlcNAc
In short: as §1

[23] = molecular target: GlcNAc(b1-3)[GlcNAc(b1-6)]Gal(b1-4)GlcNAc
In short: as §1

[24] = molecular target: GlcNAc(b1-3)[GlcNAc(b1-6)]GalNAc
In short: as §1

[25] = molecular target: GlcNAc(b1-4)Gal(b1-4)GlcNAc
In short: as §1

GlcNAc(b1-4)GlcNAc = molecular target: GlcNAc(b1-4)GlcNAc
In short: as §1

[26] = molecular target: GlcNAc(b1-4)GlcNAc(b1-4)GlcNAc
In short: as §1

[27] = molecular target: GlcNAc(b1-4)GlcNAc(b1-4)GlcNAc(b1-4)GlcNAc(b1-4)GlcNAc
In short: as §1

[28] = molecular target: GlcNAc(b1-4)GlcNAc(b1-4)GlcNAc(b1-4)GlcNAc(b1-4)GlcNAc(b1-4)GlcNAc
In short: as §1

[29] = molecular target: GlcNAc(b1-4)[GlcNAc(b1-6)]GalNAc
In short: as §1

[30] = molecular target: GlcNAc(b1-6)Gal(b1-4)GlcNAc
In short: as §1

GlcNAc(b1-6)GalNAc = molecular target: GlcNAc(b1-6)GalNAc
In short: as §1

[31] = molecular target: GlcNAc6S(b1-3)Gal(b1-4)GlcNAc
In short: as §1

Kdn(a2-3)Gal(b1-3)GalNAc = molecular target: Kdn(a2-3)Gal(b1-3)GalNAc
In short: as §1

Kdn(a2-3)Gal(b1-3)GlcNAc = molecular target: Kdn(a2-3)Gal(b1-3)GlcNAc
In short: as §1

Kdn(a2-3)Gal(b1-4)Glc = molecular target: Kdn(a2-3)Gal(b1-4)Glc
In short: as §1

Kdn(a2-3)Gal(b1-4)GlcNAc = molecular target: Kdn(a2-3)Gal(b1-4)GlcNAc
In short: as §1

[32] = molecular target: Kdn(a2-3)Gal(b1-4)[Fuc(a1-3)]GlcNAc
In short: as §1

Kdn(a2-6)Gal(b1-4)GlcNAc = molecular target: Kdn(a2-6)Gal(b1-4)GlcNAc
In short: as §1

[33] = molecular target: Man(a1-2)Man(a1-2)Man(a1-3)Man
In short: as §1

[34] = molecular target: Man(a1-2)Man(a1-2)Man(a1-6)[Man(a1-3)]Man
In short: as §1

Man(a1-2)Man(a1-3)Man = molecular target: Man(a1-2)Man(a1-3)Man
In short: as §1

B1: Banana lectin (Musa acuminata) (protein)
chain: MNGAIKVGAWGGNGGSAFDMGPAYRIISVKIFSGDVVDAVDVTFTYYGKTETRHFGGSGGTPHEIVLQEGEYLVGMKGEFGNYHGVVVVGKLGFSTNKKSYGPFGNTGGTPFSLPIAAGKISGFFGRGGDFIDAIGVYLEP
glycan array binding signal (z-score) [1]: -0.188
glycan array binding signal (z-score) (GlcNAc(b1-3)Gal(b1-4)Glc): -0.193
glycan array binding signal (z-score) [2]: -0.193
glycan array binding signal (z-score) [3]: -0.162
glycan array binding signal (z-score) [4]: -0.16
glycan array binding signal (z-score) [5]: -0.14
glycan array binding signal (z-score) [6]: -0.194
glycan array binding signal (z-score) [7]: -0.183
glycan array binding signal (z-score) [8]: -0.172
glycan array binding signal (z-score) [9]: -0.17
glycan array binding signal (z-score) [10]: -0.179
glycan array binding signal (z-score) [11]: -0.171
glycan array binding signal (z-score) [12]: -0.173
glycan array binding signal (z-score) [13]: -0.164
glycan array binding signal (z-score) [14]: -0.11
glycan array binding signal (z-score) [15]: -0.139
glycan array binding signal (z-score) [16]: -0.191
glycan array binding signal (z-score) [17]: -0.196
glycan array binding signal (z-score) [18]: -0.189
glycan array binding signal (z-score) [19]: -0.193
glycan array binding signal (z-score) [20]: -0.185
glycan array binding signal (z-score) [21]: -0.193
glycan array binding signal (z-score) (GlcNAc(b1-3)GalNAc): -0.194
glycan array binding signal (z-score) (GlcNAc(b1-3)Man): -0.19
glycan array binding signal (z-score) [22]: -0.193
glycan array binding signal (z-score) [23]: -0.194
glycan array binding signal (z-score) [24]: -0.192
glycan array binding signal (z-score) [25]: -0.192
glycan array binding signal (z-score) (GlcNAc(b1-4)GlcNAc): -0.195
glycan array binding signal (z-score) [26]: -0.194
glycan array binding signal (z-score) [27]: -0.195
glycan array binding signal (z-score) [28]: -0.195
glycan array binding signal (z-score) [29]: -0.197
glycan array binding signal (z-score) [30]: -0.194
glycan array binding signal (z-score) (GlcNAc(b1-6)GalNAc): -0.195
glycan array binding signal (z-score) [31]: -0.193
glycan array binding signal (z-score) (Kdn(a2-3)Gal(b1-3)GalNAc): -0.195
glycan array binding signal (z-score) (Kdn(a2-3)Gal(b1-3)GlcNAc): -0.192
glycan array binding signal (z-score) (Kdn(a2-3)Gal(b1-4)Glc): -0.192
glycan array binding signal (z-score) (Kdn(a2-3)Gal(b1-4)GlcNAc): -0.193
glycan array binding signal (z-score) [32]: -0.193
glycan array binding signal (z-score) (Kdn(a2-6)Gal(b1-4)GlcNAc): -0.192
glycan array binding signal (z-score) [33]: 3.39
glycan array binding signal (z-score) [34]: 8.43
glycan array binding signal (z-score) (Man(a1-2)Man(a1-3)Man): 5.44
